Reference: the RNAGym collection of RNA variant scans (doi:10.1093/nar/gkz1192)
Read counts are not given, so values of variants with three or more changes are uncertain.

B1: CPEB3 Ribozyme (parent)
chain: UAACAGGGGGCCACAGCAGAAGCGUUCACGUCGCAGCCCCUGUCAGAUUCUGGUGAAUCUGCGAAUUCUGCUGUAUAUCUC

Variants of: B1
Assay: self-cleavage, relative activity (ratio to wild type); higher = more cleavage; in vitro, sequencing
Outline: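 For each CPEB3 ribozyme variant, relative activity is its cleaved/total read fraction divided by the unmutated ribozyme's. Barcoded error-prone PCR libraries were transcribed by T7 RNA polymerase (5 hours, 37°C) and held in DNase I for 15 min before an EDTA stop, with cleavage occurring throughout. Template-switching reverse transcription and Illumina sequencing were used to read the RNAs. A 5-read minimum applied, and results are the mean of three batches.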

Variant | self-cleavage
UAGCAGGGGGCCACAGCAGAAGCGUUCACGUCGCAGCCCCUGUCAGAUUCUAGUGAAUCUGCGAACUCUGCUGUAUAUGUC [A3G G52A U66C C79G] | 0.49
UAGCAGGGAGCCACAGCAGAAGCGUUCACGUCGCAGCCCCUGUCAGAUUCUGGUGAAUCUGCGAAUUCUGCUGUACGUCUC [A3G G9A U76C A77G] | 0.13
UAGCAGGGGCCCACUGCAGAAGCGUUCACGUCGCAGCCCCUGUCAGACUCUGGUGAAUCUACGAAUUCUGCUGUAUAUCUC [A3G G10C A15U U48C G61A] | 0.25
UAGCAGGGGACCACCGCUGAAGCGUUCGCGUCGCAGCCCCUGUCAGAUCCAGGUGAAUCUGCGAAUUCUGCUGUAUAUCUC [A3G G10A A15C A18U A28G U49C U51A] | 0.13
UAGCAGGGGGCCACAGCAGAAGCUUUCACGUCGCGGCCCCAGUCACACUCUGGUGAAUCUGCGAAUUCUGCUGAAUAUCUC [A3G G24U A35G U41A G46C U48C U74A] | 0.32
UAGCAGGGGACCACAGCAGAAGCGUCCACGCCGCAGCCCCUGUCAGGUUCUGGUGAAUCUGCGAAUUCUGCUGUAUAUCUC [A3G G10A U26C U31C A47G] | 0.12
UAGCAGGGGGCCACACCAGAAGCGUUCACGUCGCAGCCCCUGUCUGACCCUGGUGAAUCUGCGAAUUCUGCUGUAUAUCUC [A3G G16C A45U U48C U49C] | 0.37
UAGCAGGGGGCCACAGCAGAAGCAUUCGCGCCGCAGCCCCUGUCAGAUUCUGGAGAACCUGCGAAUUCUGCCGUAUAUCUC [A3G G24A A28G U31C U54A U58C U72C] | 0.29
UAGCAGGGGGCCACAGCAUAAGCGUUCACGUCGCAGCCCCUGUCAGAUUCUGGUGAAUCUGUGAAUUCUGCUGUAAAUCUC [A3G G19U C62U U76A] | 0.05
UAGCAGGGGUCCACGGCAGAAGCGUUCACGUCGCAGCCCCUGCCAGAUUCUGGUGAAUCUGCGGAUUCUGCUGUAUAUCUC [A3G G10U A15G U43C A64G] | 0.37
UAGCAGGGGGCCACAGCAGAAGCGUUCACGUCCCAGCCCCUGUCAGAUUCUGGUGUAUCCGCGAAUUCUGCUGUAUACCUC [A3G G33C A56U U60C U78C] | 0.08
UAGCAGGGGCCCACAGCAGAAGCGUUCACGUCGCAGCCCCUGUCAGAUUCUGGUGAAUCUGCGAGUUCUGCUGUAUAUCUC [A3G G10C A65G] | 0.44
UAGCAGGGAGCCACAGCAGAAGCGUUCACGUCGCAGCCCCUGUCAGAUUCUGGUGAAACUGCGAAUUCUGCCGUAUAACUC [A3G G9A U58A U72C U78A] | 0.26
UAGCAGGGGGCCACAGCAGAAGCGUUCACUUCGCGGCCCCUGUCAGAUUCUGGUGGAUCUGCGAGUUCUGCUGUAUAUCAC [A3G G30U A35G A56G A65G U80A] | 0.19
UAGCAGGGGACCACAGCUGAAGCGUUCACGUCGCAGCCCCUGUCUGAUUCUCGUGAAUCUGCGAAUUCUGCAGUAUGUCUC [A3G G10A A18U A45U G52C U72A A77G] | 0.07
UAGCAGGGGGCCACAGCAGAACCGAUCACGUCGCAGCCCCUGUCAGAUUCUGGUGAAUCUGCGAAUUCUGCUGUAUAUCUC [A3G G22C U25A] | 0.2
UAGCAGGGGGCCACAUCAGAAGCGUUCACGUCGCAGCCACUGUCAGAUUCUGGUGAAUCUGCGAAUUCUGCUGUAUAUCUG [A3G G16U C39A C81G] | 0.08

Variant | self-cleavage
UAGCAGGGUGCCACGGCAGAAGCGUUCACGUCGCAGCCCCAGUCAGAUUCUGGUGAAUCUGCGAAUUCUGCUGUAUAUCUC [A3G G9U A15G U41A] | 0.09
UAGCAGGGGGCCACAGCAGAAGCGUUCACUUCGCAGCCCCUGUCAGAUUCUGGUGACUCUGCGAGUUCUGCUGCAUAUCUC [A3G G30U A57C A65G U74C] | 0.11
UAGCAGGGGGCCACACCAGAAGCGUUCACGUCGCAGCCCCUGUCAGAUUCUGGUGGAUCUGCGAAUUCUGCUGUUUAUCUC [A3G G16C A56G A75U] | 0.47
UAGCAGGGUGCCACAGCAUAAGCGUUCACGCCGCAGCCCCUGUCAGAUUCUGGUGAAUCUUCGAAUUCUGCUGUAUAUCUC [A3G G9U G19U U31C G61U] | 0.17
UAGCAGGGGACCACAGCAGAAGCGUUCACGUCGCAGCCCCUGACAGAUUCUGGUGAAUCUGCGAAUUCUGCUGUAUAUCUC [A3G G10A U43A] | 0.16
UAGCAGGGGACCACAGCAGAAGCGAUCGCGUCUCAGCCCCUGUCAGAUUCUGGUGAAUCUGCGAAUUCUGCUGUAUAUCUC [A3G G10A U25A A28G G33U] | 0.08
UAGCAGGGGGCCACAGCAGAAGCGUUCACAUCGCAGCCUCUGUCAGAUUCUGGUGAAUCUGCGAAUUCUGCUGUAUAUCUC [A3G G30A C39U] | 0.41
UAGCAGGGGGCCACAGCAGAAGCUUUCACGUCGCAGCCCCUGUCAGAUUCUGGUGAAUCUGCGAAUUCUGCAGUAUUUCUC [A3G G24U U72A A77U] | 0.23
UAGCAGGGAGCCACAGCAGAAGCGUUCACGUCGCGGCCCCCGUCAGAUUCUGGUGAAUAUGCGAAUUCUGCUGUAUAUCUC [A3G G9A A35G U41C C59A] | 0.21
UAGCAGGGGGCCACAGCAGAAUCGUUCACGCCGCAGCCCCAGUCAGAUUCCGGUGAAUCUGCGAGUUCUGCUGUAUGUCUC [A3G G22U U31C U41A U51C A65G A77G] | 0.04
UAGCAGGGGGCCACAGCAGAAGCGUUCACGUCGCAGCCCCUAUCAGAUUCUGGUGAAUCUGCGAAUUCUGCUGUAUACCUC [A3G G42A U78C] | 0.53
UAGCAGGGUGCCACGGCAGAAGCGUUCACGUCGCAGCCCCUGUCAGAUUCUGGUGAAUCUGCGAAUUCCGCUGUACAUCUC [A3G G9U A15G U69C U76C] | 0.17
UAGCAGGGGGCCACAGCACAAGCGUUCACGUCCCAGCCCCUGUCAGAUUCUGGUGUAUCUGCGAAUUCUGCUGUAUAUCUC [A3G G19C G33C A56U] | 0.33
UAGCAGGGGGCCACAGCACAAGCGUUCACGUCGCAGCCCCCGUCAGAUUCUGGUGAAUCUGCGAAUUCUGCUGUAUAUCUC [A3G G19C U41C] | 0.07
UAGCAGGGGACCACAGCUGAAGCGUUCACGACGCAGCCCCUGUCAGAUUCUUGUGAAUCUGCGAAUUCUGCAGUAUGUCUC [A3G G10A A18U U31A G52U U72A A77G] | 0.04
UAGCAGGGGACCACAGCAGAAGCGUUCACGUCGCGGCCCCUGUCAGAUUCUGGUGAUUCUGCGAAUUCUGCUGUAUAUCUC [A3G G10A A35G A57U] | 0.22
UAGCAGGGGGCCACAGCAGAAGCGUUCACGUCACAGCCCCUGUCAGAUUCUGGUGAAUCUGCGAAUUCUGCCGUAUAUCUC [A3G G33A U72C] | 0.4
